Laboratory results from PubChem BioAssay AID652106 (National Center for Advancing Translational Sciences (NCATS), 2013).
Where “and” joins values, the source holds several entries; their conditions need not be identical. Identical values can stand only once. Screen size: about 370,000 compounds; about 500 (0.14%) were called active. This list was built around the results that the source calls inconclusive (neither active nor inactive); the mix of calls is not that of the screen. The call rests on the fitted dose curve; in most records, active means well fitted activation curve with a large enough effect; inconclusive means small, poorly fitted or top-dose-only effect; inactive means no such curve, though single readings can be large or run the other way. Potencies beside an inconclusive call are fits to weak or partial responses and may not hold up.

Experiment: qHTS of alpha-syn Inhibitors; further: nearly all actives have a fitted effect of over 65% in size
Conditions: Yeast expressing alpha-synuclein, BacTiter-Glo, 24 h; Potency: growth rescue unless noted; series mostly up to 46.1 µM
Method in brief: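 Galactose-induced alpha-syn yeast (OD600=0.02, raffinose-pregrown) + pinned cpd, 24 hr, 30 deg C; growth by BacTiter-Glo luminescence. Growth restoration scores as activation.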
Potency means the concentration at half of the fitted maximal effect; tags describe the fitted curve by direction and shape.

Potency, active:
O=S(=O)(Nc1ccc2c(c1)OCCO2)c1ccc2oc3ccccc3c2c1 25.1 µM
CC(C)c1cccc(C(C)C)c1Nc1cn[nH]c1 3.98 µM

Potency, inactive:
COc1c2c(cc3oc(=O)ccc13)OC(C)(C)C=C2
CCCNC(=O)c1csc(Nc2cccc3ccccc23)n1
COc1ccc(-c2cc3cc4c(cc3cn2)OCO4)cc1
Oc1ccc(Br)cc1-c1cc(-c2ccccc2)n[nH]1
CCOC(=O)N1CCN(C(=O)c2oc3ccc(S(=O)(=O)N4CCOCC4)cc3c2C)CC1
Cc1c(OCC(=O)OC(C)C)ccc2c3c(c(=O)oc12)CCC3
CC(C)NC(=O)Nc1ccc2c(c1)C(=O)N([C@H](C)CO)C[C@H](C)[C@@H](CN(C)C(=O)Nc1ccccc1)O2
COc1ccccc1-n1cc(C(=O)NCC(=O)N2CCN(c3ccccn3)CC2)c2ccccc2c1=O
O=C1C2C(C(=O)N1/N=C/c1ccc([N+](=O)[O-])o1)C1C=CC2C12CC2 (stereo unspecified)
C=CCNC(=O)C(=O)NCCCN1CCOCC1
Cn1cc(C(=O)c2cccc(Cl)c2Cl)cc1C(=O)O
CC(C)Oc1ccc(-c2nc(-c3cccnc3)no2)cc1
CCNc1ccc(C(=O)O)cc1N
COc1cc(NC(=O)N2CCNC2=O)cc(C(=O)Nc2cccc(C(F)(F)F)c2)c1
C=C(c1ccc2nc(NC(=O)OC)[nH]c2c1)c1cccs1
O=C(CSC1=NCCS1)Nc1ccc(S(=O)(=O)N2CCCCCC2)cc1
CCOC(=O)Cc1c(C)nc2cc(-c3ccc(Cl)cc3)[nH]n2c1=O
Clc1cccc(-c2cc3nc4c(c(N5CCN(c6cnccn6)CC5)n3n2)CCCC4)c1
Nc1c2ccccc2nc2ccccc12
CCCCNC(=S)N(C)/N=C/c1ccc(F)cc1
COc1cccc(-c2nnc(SCc3cccnc3)o2)c1
CCCCOc1ccc(C(=O)NN2CCOCC2)cc1
NS(=O)(=O)c1cccc(NC(=O)C2CC(=O)N(Cc3ccco3)C2)c1 (stereo unspecified)
COC(=O)c1sccc1-c1ccc(C(=O)Nc2ccccc2)o1
Cc1nc2c(ccc3nc(NC(=O)C(c4ccccc4)c4ccccc4)sc32)s1
Cc1ccccc1CSCC(=O)Nc1ccccc1F
O=C(CN1C(=O)COc2ccc(S(=O)(=O)N3CCOCC3)cc21)N1CCN(c2ccccc2F)CC1

Potency, inconclusive:
CC1(C(=O)NCc2cccc3ccccc23)CCN1C(=O)C1(c2ccccc2)CCCC1 (stereo unspecified) 28.2 µM [activator, single point]
O=C(CSc1nn(-c2ccccc2)c(=S)s1)Nc1ncccn1 3.55 µM [activator, single point]
CCn1c(SCC(=O)N2c3ccccc3Sc3ccccc32)nc2c1c(=O)n(C)c(=O)n2C 35.5 µM [activator, single point]
N/C(=N\OC(=O)CCn1cccc(C(F)(F)F)c1=O)c1ccc(Cl)cc1 35.5 µM [activator, single point]
O=C(O)C1c2ccccc2Cc2ccccc21 17.8 µM [activator, single point]
Cc1noc(C)c1S(=O)(=O)N(C)C[C@H]1Oc2ccc(NC(=O)C3CC3)cc2C(=O)N([C@H](C)CO)C[C@@H]1C 35.5 µM [activator, single point]
CCn1nccc1C(=O)Nc1ccc(S(=O)(=O)NC23CC4CC(CC(C4)C2)C3)cc1 31.6 µM [activator, single point]
COc1ccccc1CCNC(=O)CNC(=O)c1ccc2ccccc2c1 35.5 µM [activator, single point]
O=S(=O)(c1ccc(NC(=S)NN=Cc2ccccc2O)cc1)N1CCCCC1 25.1 µM [activator, single point]
CCN(CCO)c1ncnc2c1sc1nc(C(C)C)c3c(c12)CC(C)(C)OC3 22.4 µM [activator, single point]
O=C(Cn1cc(SCc2ccccc2Cl)c2ccccc21)N1CCOCC1 15.8 µM [activator, single point]
O=C(COc1ccccc1F)Nc1ccc(S(=O)(=O)N2CCCC2)cc1 3.16 µM [activator, single point]
O=C(c1ccncc1)N1CCN(c2cc(-c3ccccc3)nc3cc(-c4cccc(Cl)c4)nn23)CC1 35.5 µM [activator, single point]
CCc1ccc(Cn2nnc(C(=O)Nc3cccc(C)c3)c2N)cc1 5.62 µM [activator, single point]
CN(c1ccc(Br)cc1)S(=O)(=O)c1ccc2[nH]cc(C(=O)NCCN3CCOCC3)c(=O)c2c1 35.5 µM [activator, single point]
Cc1cc(C)c(C#N)c(SCS(=O)Cc2ccccc2)n1 (stereo unspecified) 25.1 µM [activator, single point]
COc1cc2c(NC3CCN(C)CC3)nc(N3CCCN(C)CC3)nc2cc1OCCCCCN 10 µM [activator, partial curve]
COC(=O)c1ccc(Oc2ccc3nnc(C)n3n2)cc1 28.2 µM [activator, single point]
O=C(Cc1ccccc1)NNC(=S)NC(=O)c1cccs1 3.98 µM [activator, single point]
O=C(/C=C/c1c(Cl)cccc1Cl)n1cccn1 20 µM [activator, partial curve]
O=C(CCCN1C(=O)c2cccc3cccc(c23)C1=O)N1CCc2ccccc2C1 17.8 µM [activator, single point]
Cc1ccc(-c2noc(-c3ccccc3C(=O)NCc3ccco3)n2)cc1 20 µM [activator, single point]
Cc1nc(C)c(C(=O)OCC(=O)NCc2ccccc2)s1 35.5 µM [activator, single point]
CN(C)c1ccc(-c2ccnc3c2CC(C)(C(=O)NCc2ccc(F)c(F)c2)O3)cc1 (stereo unspecified) 20 µM [activator, single point]
COc1ccc(S(=O)(=O)N(C(=O)c2ccncc2)c2ccc(OC(=O)c3ccncc3)cc2)cc1 3.55 µM [activator, partial curve]
COc1ccc2c(c1)c(CCNNC(=O)C(C)(C)C)c(C)n2C(=O)c1ccc(Cl)cc1 17.8 µM [activator, single point]
O=C1CC(c2ccccc2)CN1S(=O)(=O)c1ccccc1 (stereo unspecified) 35.5 µM [activator, single point]
COC(=O)C1=NN(C(=O)c2ccc(Br)cc2)C(O)(C(C)(C)C)C1 (stereo unspecified) 22.4 µM [activator, single point]
Clc1cccc(-c2ccnc3nc(-n4cccc4)nn23)c1 4.47 µM [activator, single point]
CC1(C(=O)NCc2ccccc2)CCC(=O)N1CCCn1ccnc1 (stereo unspecified) 35.5 µM [activator, single point]
Cc1ccc(NC(=O)c2nc[nH]c2C(=O)N[C@H](C)c2ccccc2)cc1 35.5 µM [activator, single point]
O=C(CCN1C(=O)c2ccccc2C1=O)Nc1sc2c(c1C(=O)NCC1CCCO1)CCC2 (stereo unspecified) 31.6 µM [activator, single point]
CN(C)c1ccc(-c2csc(C(O)c3cccc(Cl)c3)n2)cc1 (stereo unspecified) 17.8 µM [activator, single point]
C[C@@H]1CCCCO[C@H](CN(C)C(=O)Nc2ccc3c(c2)OCO3)[C@@H](C)CN([C@H](C)CO)C(=O)c2cc(NS(=O)(=O)c3ccc(F)cc3)ccc2O1 31.6 µM [activator, single point]
Cc1ccc(C)c(N2CCN(C(=O)CCC(=O)N3CCOc4ccc(Cl)cc43)CC2)c1 35.5 µM [activator, single point]
Cn1cccc1C(=O)Nc1nc(-c2ccccn2)cs1 25.1 µM [activator, single point]
O=[N+]([O-])c1ccccc1S(=O)(=O)Nc1cccc2cccnc12 14.1 µM [activator, single point] and 35.5 µM [activator, single point]
COc1cccc(C(=O)N/N=C(/c2ccccc2)c2ccccn2)c1 14.1 µM [activator, partial curve]
CCSc1nnc2n1C(C)(C)Cc1ccccc1-2 35.5 µM [activator, single point]
CC1CC(C)CN(S(=O)(=O)c2ccc(C(=O)Nc3nnc(C4CC4)o3)cc2)C1 (stereo unspecified) 3.98 µM [activator, single point]
Nc1nc2ncc(CNc3ccc(C(=O)N[C@@H](CCC(=O)O)C(=O)O)cc3)nc2c(=O)[nH]1 3.98 µM [activator, single point]
O=C(NCc1cccnc1)c1cc(C2CCCCN2C(=O)c2ccc(Cl)cc2)on1 (stereo unspecified) 35.5 µM [activator, single point]
